B1: OR4K15 (parent)
chain: GUUAACGGUCAUAGGCCAUGGAAACUAGGAGCACCAUUUCGCUGCCAGUGAAGAAAUGAACAAAGAAAAUCUGGGCCAGGCAGGCAUCAAAAGAAAUAGUCUUGCGCUCAACCAGAAAGUCUGUAAUCAUUUUAAGGGUA

Read counts are not given, so values of variants with three or more changes are uncertain.

The variants in the data set derive from B1. In words: self-cleavage, relative activity (ratio to wild type); higher = more cleavage; in vitro, sequencing; the parent is a self-cleaving ribozyme.
GUUAACGGCCAUAGGCCAUGGAAACUAGGAGCACCAUUUCGCUGCCAGUGAAGAAAUGAACAAAGAGAAUCUGGGCCAGGCAGGCAUCAAAAGAAAUAGUCUUGCGCCCAACCAGAAAGUCUGUAAUCAUUUUAAGGGUA: the self-cleavage is 0.02.
To GUUAACGGCCAUAGGCCAUGGAAACUAGGAGCACCAUUUCGCUGCCAGUGAAGAAAUGAACAAAGUAAAUCUGGGCCAGGCAGGCGUCAAAAGAUAUAGUCUUGCGCUCAACCAGAAAGUCUGUAAUCAUUUUAAGGGUA belongs 0.56; to GUUAACGGCCAUAGGCCAUGGAAACUAGGAGCACCAUUUCGCUGCCAGUGAAGAAAUGAACAAAGAAAAUCUGGGCCAGGCAGGCAUCAAAAGAAAUAGUCUUGCGCUCAACCAGGAAGUCUGUAAUCAUUUUAAGGGUG, 0.75; to GUUAACGGCCAUAGGCCAUGGAAACUAGGAGCACCAUUUCGCUGCCAGUGAAGAAAUGAACAAAGAAAAUCUGGGCCAGGCAGGCGUCAAAAGAAAUAGUCUUGCGCUCAACCAGAAAGUCUGUAAUCACUUUAAGGGUA, 1.58.
To GUUAACGGCCAUAGGCCAUGGAAACUAGGAGCACCAUUUCGCUGCCAGUGAAGAAAUGAACAAAGAAAAUCUGGGCCAGGCAGGCUUCAAAAGAAGUAGUCUUGCGCUCAACCAGAAAGUCUGUAAUCAUUUUAAGGGUA belongs 1.87; to GUUAACGGCCAUAGGCCAUGGAAACUAGGAGCACCAUUUCGCUGCCAGUGAAGAAAUGAUCAAAGAGGAUCUGGGCCAGGCAGGCAUCAAAAGAAAUAGUCUUGCGCUCAACCAGAAAGUCUGUAAUCAUUUUAAGGGUA, 1.26; to GUUAACGGCCAUAGGCCAUGGAAACUAGGAGCACCAUUUCGCUGCCAGUGAAGAAAUGAACAGAGAAAAACUGGGCCAGGCAGGCAUCAAAAGAAAUAGUCUUGCGCUCAACCAGAAAGUCCGUAAUCAUUUUAAGGGUA, 1.21.
To GUUAACGGCCAUAGGCCAUGGAAACUAGGAGCACCAUUUCGCUGCCAGUGAAGAAAUGAGCAAAGAAAAUCUGGGCCAGGCAGGCAUCAAAAGAAACAGUCUUGCGCUCAACCAGAAAGUCAGUAAUCAUUUUAAGGGUA belongs 0.3.
With GUUAACGGCCAUAGGCCAUGGAAACUAGGAGCACCAUUUCGCUGCCAGUGAAGAAAUGAACAAAGAAAAUCUGGGCCAGGCAGGCGUCAAAAGAAAUAGUCUUGCGCUCAACCAGAAAGUCUGUAAUCAUCUUAAGGGUA, the self-cleavage was determined as 1.83.
For the variant GUUAACGGCCAUAGGCCAUGGAAACUAGGAGCACCAUUUCGCUGCCAGUGAAGAAAUGAACGAAGAAAAUCUGGGCCAGGCAAGCAUCAAAAGAAAUAGUCUUGCGCUCAACCAGAAAGUCUGUAAUCAUUUUAAGGGUA, the self-cleavage was 1.3.
To GUUAACGGCCAUAGGCCAUGGAAACUAGGAGCACCAUUUCGCUGCCAGUGAAGAAAUGAACAAAGAAUAUCUGGGCCAGGCAGGCAUCAAAAGAAAUAGUCUUGCGCUCAACCAGAAAGUCCGUAAUCAUUUUAAGGGUA belongs 1.84; to GUUAACGGCCAUAGGCCAUGGAAACUAGGAGCACCAUUUCGCUGCCAGUGAAGAAAUGAACAAAGAAAAUCUGGGCCAGGCAGGCAUCAAAAGAAAUAGUCUUGCGCUCAACCAGGAUGUCUGUAAUCAUUUUAAGGGUA, 0.14.
With GUUAACGGCCAUAGGCCAUGGAAACUAGGAGCACCAUUUCGCUGCCAGUGAAGAAAUGAACAAAGAAAAUCUGGGCCAGGCAGGCAUCAAAAGAAAUAGUCUUGCGCUCAACCAGGAAGUCUGUAAUCAUCUUAAGGGUA, the self-cleavage stood at 0.29.
For GUUAACGGCCAUAGGCCAUGGAAAUUAGGAGCACCAUUUCGCUGCCUGUGAAGAAAUGAACAAAGAAAAUCUGGGCCAGGCAGGCAUCAAAAGAAAUAGUCUUGCGCUCAACCAGAAAGUCUGUAAUCAUUUUAAGGGUA, the self-cleavage turned out to be 0.54.
To GUUAACGGCCAUAGGCCAUGGAAACUAGGAGCACCAUUUCGCUGCCAGUGAAGAAAUGAACGAAGAAAAUCUGGGCCAGGCAGGCAUCAAAGGAAAUAGUCUUGCGCUCAACCAGAAAGUCCGUAGUCAUUUUAAGGGUA belongs 1.54.
To GUUAACGGCCAUAGGCCAUGGAAACUAGGAGCACCAUUUCGCUGCCAGUGAAGAAAUGAACAAAGAAAAUCUGGGCCAGGCGGGCAUCAAAAGAAGUAGUCUUGCGCUCAACCGGAAAGUCUGUAAUCAUUUUAAGGGUA belongs 0.52.
For the variant GUUAACGGCCAUAGGCCAUGGAAACUAGGAGCACCAUUUCGCUGCCAGUGAAGAAAUGAACAAAGAAAGUCUGGGCCAGGCAGGCAUAAAAAGAAAUAGUCUUGCGCUCAACCAGAGAGUCUGUAAUCAUUUUAAGGGUA, the self-cleavage turned out to be 1.83.
To GUUAACGGCCAUAGGCCAUGGAAACUAGGAGCACCAUUUCGCUGCCAGUGAAGAAAUGAACAAAGAAGAUCUGGGCCAGGCAGGCAUCAAAAGAAAUAGUCUUGCGCUCAACCAGAAAGUCUGUAAUCAUUCUAAGGGUA belongs 1.64.
To GUUAACGGCCAUAGGCCAUGGAAACUAGGAGCACCAUUUCGCUGCCAGUGAAGAAAUGAACAAAGAAAAUCUGGGCCAGGCAGGCAUCAAAAGAGACAGUCUUGCGCUCAACCAGAAAGUCUGUAAUCAUUUUAAGGGUA belongs 0.65; to GUUAACGGCCAUAGGCCAUGGAAACUAGGAGCACCAUUUCGCUGCCAGUGAAGAAAUGAACAAAGAAGAUCUGGGCCAGGCAGGCAUCCAAAGAAAUAGUCUUGCGCUCAACCAGGAAGUCUGUAAUCAUUUUAAGGGUA, 0.04; to GUUAACGGCCAUAGGCCAUGGAAACUAGGAGCACCAUUUCGCUGCCAGUGAAGAAAUGAACGAAGAAAAUCUGGGCCAGGCAGGCAUCAAAAGAAGUAGUCUUGCGCUCAACCAGAAAGUCUGUAAUCAUUUUAAGGGUA, 1.38.

The values are drawn from the RNAGym collection of RNA variant scans (doi:10.7554/elife.90254).
